Results as given in the supplement of paper PMC4604168 (melanoma cell lines).
Some of the results follow. Single values are uncertain, as repeats are few or missing.

Key:
Assay in all cases: cell count relative to DMSO control; melanoma cells; higher = more viable cells
Conditions in all cases: library dose: standard library concentration; 72 h
G361 = test system: G361
IPC-298 = test system: IPC-298
IST-MEL1 = test system: IST-MEL1
LB2518-MEL = test system: LB2518-MEL
LOXIMVI = test system: LOXIMVI
MEL-HO = test system: MEL-HO
MZ2-MEL = test system: MZ2-MEL
MeWo = test system: MeWo
RPMI7951 = test system: RPMI7951
RVH-421 = test system: RVH-421
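Also: cells treated in 1,536-well plates, then fixed and DAPI-stained, with nuclei counted from automated high-throughput microscope images.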

Question: How did the cell count (G361) turn out when `Cn1c(=O)n(-c2ccc(C(C)(C)C#N)cc2)c2c3cc(-c4cnc5ccccc5c4)ccc3ncc21` + NC(=O)Nc1cc(-c2cccc(F)c2)sc1C(=O)N[C@H]1CCCNC1 [AZD7762] (first compound 0.02 µM, partner dose 0.1 µM) was run?
Answer: The cell count was 81.3%.

Question: What about the cell count (IPC-298) of the same compound?
Answer: The cell count was 68.3%.

Question: What about the cell count (IST-MEL1) of the same compound?
Answer: Its cell count is 71.4%.

Question: What about the cell count (LB2518-MEL) of the same compound?
Answer: The cell count was 50.7%.

Question: And the cell count (LOXIMVI)?
Answer: Its cell count is 77.6%.

Question: What about the cell count (MEL-HO) of the same compound?
Answer: The cell count was 55.5%.

Question: And the cell count (MZ2-MEL)?
Answer: The cell count was 84.7%.

Question: What about the cell count (MeWo) of the same compound?
Answer: Its cell count is 47.9%.

Question: And the cell count (RPMI7951)?
Answer: Its cell count is 30.7%.

Question: And the cell count (RVH-421)?
Answer: Its cell count is 86.4%.

Question: Which results are given for `Cc1cn(-c2cc(NC(=O)c3ccc(C)c(Nc4nccc(-c5cccnc5)n4)c3)cc(C(F)(F)F)c2)cn1` [nilotinib] + OCc1c[nH]c2ccccc12 [Indole-3-carbinol] (first compound 1 µM, partner dose 4 µM)?
Answer: cell count (G361): 100%; cell count (IPC-298): 96.4%; cell count (IST-MEL1): 93.7%; cell count (LB2518-MEL): 87.5%; cell count (LOXIMVI): 80.1%; cell count (MEL-HO): 113%; cell count (MZ2-MEL): 95.3%; cell count (MeWo): 91.7%; cell count (RPMI7951): 106%; cell count (RVH-421): 126%

Question: What does the source list for `Cc1cn(-c2cc(NC(=O)c3ccc(C)c(Nc4nccc(-c5cccnc5)n4)c3)cc(C(F)(F)F)c2)cn1` [nilotinib] + Oc1nc(-c2ccc(C(F)(F)F)cc2)nc2c1CSCC2 [XAV939] (first compound 1 µM, partner dose 10 µM)?
Answer: cell count (G361): 94.7%; cell count (IPC-298): 96.6%; cell count (IST-MEL1): 89.5%; cell count (LB2518-MEL): 77.1%; cell count (LOXIMVI): 130%; cell count (MEL-HO): 82%; cell count (MZ2-MEL): 87%; cell count (MeWo): 83%; cell count (RPMI7951): 95.7%; cell count (RVH-421): 81%

Question: Which results are given for `COc1ccc(C2=N[C@@H](c3ccc(Cl)cc3)[C@@H](c3ccc(Cl)cc3)N2C(=O)N2CCNC(=O)C2)c(OC(C)C)c1` [Nutlin-3] + Nc1ccn([C@@H]2O[C@H](CO)[C@@H](O)C2(F)F)c(=O)n1 [gemcitabine] (first compound 0.5 µM, partner dose 0.002 µM)?
Answer: cell count (G361): 38.3%; cell count (IPC-298): 40.4%; cell count (IST-MEL1): 35.4%; cell count (LB2518-MEL): 42.7%; cell count (LOXIMVI): 71.8%; cell count (MEL-HO): 72.9%; cell count (MZ2-MEL): 71.3%; cell count (MeWo): 40.2%; cell count (RPMI7951): 59.2%; cell count (RVH-421): 47.4%

Question: With `COc1ccc(C2=N[C@@H](c3ccc(Cl)cc3)[C@@H](c3ccc(Cl)cc3)N2C(=O)N2CCNC(=O)C2)c(OC(C)C)c1` [Nutlin-3] + O=C(Nc1ccccc1)c1cc([N+](=O)[O-])ccc1Cl [GW9662] (first compound 0.5 µM, partner dose 10 µM) as the compound, how does the cell count (G361) read?
Answer: The cell count was 60.8%.

Question: What about the cell count (IPC-298) of the same compound?
Answer: The cell count was 93.1%.

Question: What about the cell count (IST-MEL1) of the same compound?
Answer: Its cell count is 90.1%.

Question: What about the cell count (LB2518-MEL) of the same compound?
Answer: The cell count was 65.7%.

Question: What about the cell count (LOXIMVI) of the same compound?
Answer: Its cell count is 44.3%.

Question: And the cell count (MEL-HO)?
Answer: Its cell count is 81.4%.

Question: And the cell count (MZ2-MEL)?
Answer: Its cell count is 76.6%.

Question: And the cell count (MeWo)?
Answer: Its cell count is 80.6%.

Question: What about the cell count (RPMI7951) of the same compound?
Answer: The cell count was 82.2%.

Question: And the cell count (RVH-421)?
Answer: Its cell count is 52.5%.

Question: For `CC(C)C[C@H](NC(=O)[C@H](Cc1ccccc1)NC(=O)c1cnccn1)B(O)O` [Bortezomib] + O=S(=O)(c1ccccc1)N(CC(F)(F)F)c1ccc(C(O)(C(F)(F)F)C(F)(F)F)cc1 [T0901317] (first compound 0.005 µM, partner dose 7 µM), which cell count (G361) is on record?
Answer: The cell count was 1.27%.

Question: What about the cell count (IPC-298) of the same compound?
Answer: The cell count was 4.39%.

Question: What about the cell count (IST-MEL1) of the same compound?
Answer: The cell count was 9.73%.

Question: And the cell count (LB2518-MEL)?
Answer: Its cell count is 1.53%.

Question: What about the cell count (LOXIMVI) of the same compound?
Answer: The cell count was 212%.

Question: And the cell count (MEL-HO)?
Answer: Its cell count is 22.2%.

Question: What about the cell count (MZ2-MEL) of the same compound?
Answer: Its cell count is 3.32%.

Question: What about the cell count (MeWo) of the same compound?
Answer: The cell count was 9.16%.

Question: And the cell count (RPMI7951)?
Answer: Its cell count is 7.85%.

Question: And the cell count (RVH-421)?
Answer: The cell count was 11.6%.

Question: How did the cell count (G361) turn out when `Cc1cc(Nc2cc(N3CCN(C)CC3)nc(/C=C/c3ccccc3)n2)n[nH]1` + NC1(c2ccc(-c3nc4ccn5c(=O)[nH]nc5c4cc3-c3ccccc3)cc2)CCC1 [MK2206] (first compound 0.2 µM, partner dose 2 µM) was run?
Answer: The cell count was 86.8%.

Question: What about the cell count (IPC-298) of the same compound?
Answer: Its cell count is 83.8%.

Question: What about the cell count (IST-MEL1) of the same compound?
Answer: The cell count was 86.8%.

Question: And the cell count (LB2518-MEL)?
Answer: The cell count was 60.2%.

Question: And the cell count (LOXIMVI)?
Answer: Its cell count is 91.4%.

Question: And the cell count (MEL-HO)?
Answer: Its cell count is 67.7%.

Question: And the cell count (MZ2-MEL)?
Answer: Its cell count is 97.6%.

Question: What about the cell count (MeWo) of the same compound?
Answer: The cell count was 76.6%.

Question: What about the cell count (RPMI7951) of the same compound?
Answer: Its cell count is 44.8%.

Question: And the cell count (RVH-421)?
Answer: Its cell count is 64.2%.

Question: With `Cc1cc(Nc2cc(N3CCN(C)CC3)nc(/C=C/c3ccccc3)n2)n[nH]1` + C=CCNC1=C2C[C@@H](C)C[C@H](OC)[C@H](O)[C@@H](C)/C=C(\C)[C@H](OC(N)=O)[C@@H](OC)/C=C\C=C(/C)C(=O)NC(=CC1=O)C2=O [Tanespimycin] (first compound 0.2 µM, partner dose 0.01 µM) as the compound, how does the cell count (G361) read?
Answer: The cell count was 75%.

Question: And the cell count (IPC-298)?
Answer: Its cell count is 107%.

Question: And the cell count (IST-MEL1)?
Answer: The cell count was 65.9%.

Question: What about the cell count (LB2518-MEL) of the same compound?
Answer: The cell count was 78.5%.

Question: And the cell count (LOXIMVI)?
Answer: The cell count was 128%.

Question: And the cell count (MEL-HO)?
Answer: Its cell count is 80.9%.

Question: What about the cell count (MZ2-MEL) of the same compound?
Answer: Its cell count is 127%.

Question: And the cell count (MeWo)?
Answer: The cell count was 59.3%.

Question: And the cell count (RPMI7951)?
Answer: The cell count was 11.2%.

Question: And the cell count (RVH-421)?
Answer: The cell count was 110%.

Question: With `CC(C)C[C@H](NC(=O)[C@H](Cc1ccccc1)NC(=O)c1cnccn1)B(O)O` [Bortezomib] + c1cc(-c2cnn3cc(-c4ccc(OCCN5CCCCC5)cc4)cnc23)ccn1 [Dorsomorphin] (first compound 0.005 µM, partner dose 2 µM) as the compound, how does the cell count (G361) read?
Answer: Its cell count is 1.15%.

Question: What about the cell count (IPC-298) of the same compound?
Answer: The cell count was 5.87%.

Question: And the cell count (IST-MEL1)?
Answer: Its cell count is 12.4%.

Question: What about the cell count (LB2518-MEL) of the same compound?
Answer: Its cell count is 1.97%.

Question: What about the cell count (LOXIMVI) of the same compound?
Answer: The cell count was 18.9%.

Question: And the cell count (MEL-HO)?
Answer: The cell count was 31%.

Question: What about the cell count (MZ2-MEL) of the same compound?
Answer: Its cell count is 3.7%.

Question: What about the cell count (MeWo) of the same compound?
Answer: The cell count was 7.85%.

Question: And the cell count (RPMI7951)?
Answer: Its cell count is 7.21%.

Question: And the cell count (RVH-421)?
Answer: The cell count was 4.92%.

Question: Which cell count (G361) does the source give for `COc1ccc(C2=N[C@@H](c3ccc(Cl)cc3)[C@@H](c3ccc(Cl)cc3)N2C(=O)N2CCNC(=O)C2)c(OC(C)C)c1` [Nutlin-3] + C#Cc1cccc(Nc2ncnc3cc(OCCOC)c(OCCOC)cc23)c1 [erlotinib] (first compound 0.5 µM, partner dose 4 µM) here?
Answer: The cell count was 55.5%.

Question: What about the cell count (IPC-298) of the same compound?
Answer: Its cell count is 65.6%.

Question: What about the cell count (IST-MEL1) of the same compound?
Answer: Its cell count is 94.9%.

Question: And the cell count (LB2518-MEL)?
Answer: The cell count was 54.1%.

Question: What about the cell count (LOXIMVI) of the same compound?
Answer: The cell count was 80.4%.

Question: And the cell count (MEL-HO)?
Answer: The cell count was 85.2%.

Question: What about the cell count (MZ2-MEL) of the same compound?
Answer: The cell count was 82.3%.

Question: What about the cell count (MeWo) of the same compound?
Answer: Its cell count is 75.6%.

Question: And the cell count (RPMI7951)?
Answer: Its cell count is 84.1%.

Question: What about the cell count (RVH-421) of the same compound?
Answer: The cell count was 62.8%.
